# This is one part of the list.
# Test system: T1, C. trachomatis L2/434/Bu expressing GFP (CTL2-GFP)
# T1 construct: L2/434/Bu GFP intracellular growth in HeLa cells
# Parameters: species or system HeLa; C. trachomatis total inclusion area by high-content imaging, normalised to DMSO
# Settings: total inclusion area; 28.5 h, 10 µM; inhibitor
# Procedure, shortened: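 Post-fluorescence-read fixation, DNA staining with Hoechst and high-content imaging; GFP inclusion area and number per well, and nuclei counts, used as proxies for bacterial growth and host viability.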
row,SMILES,% of control remaining
1,O=C(Nc1ccc2c(c1)OCCO2)N1CCN(c2cc(C(F)(F)F)ccn2)CC1 [CBK162331],23.3619
2,Cc1nc(C(Cc2ccsc2)NC(=O)Cn2cccn2)sc1C (stereo not shown) [CBK284781],120.387
3,Cc1csc2c(N3CCC(NCCCc4cnn(C)c4)CC3)ncnc12 [CBK307291],20.8486
4,CC1CCN(S(=O)(=O)c2cccc(C(=O)N3CCC(C(=O)O)CC3)c2)CC1 [CBK266790],71.9198
5,CN(C)CC1(O)C2CN3CCN(C2)CC1(c1ccccc1)C3 (stereo not shown) [CBK263029],103.227
6,Cc1nc(O)cc(C2CCCN(C(=O)c3csc4c3CCCC4)C2)n1 (stereo not shown) [CBK306696],86.3064
7,COCCNc1ncnc2sc3c(c12)CCCC3 [CBK287583],98.8899
8,O=C(Nc1ccc(I)cc1C(=O)NCCN1CCOCC1)c1ccccc1Cl [CBK266245],65.1932
9,Cc1nc(C2CN(Cc3cc4ccccc4nc3Cl)CCO2)no1 (stereo not shown) [CBK305381],82.1709
10,O=C(NC(=S)Nn1cnnc1)c1ccccc1 [CBK028188],84.1574
11,O=C(/C(=C\c1ccc([N+](=O)[O-])cc1)n1cncn1)c1ccc(Cl)cc1Cl [CBK262145],85.2111
12,Cc1cc(C)nc(Nc2cccc(C3CCCN3C(=O)CCOc3ccccc3C)n2)n1 (stereo not shown) [CBK286496],109.692
13,CCOc1ccc(NC(=O)NC(CC)c2cnn(C)c2)cc1Cl (stereo not shown) [CBK307262],58.3282
14,Cc1cnc(CNC(=O)N2CCN(Cc3ccccc3)CC2)cn1 [CBK155627],72.4477
15,Cc1ccc(OCC(=O)NC(C)c2ccc(F)cc2F)c([N+](=O)[O-])n1 (stereo not shown) [CBK295662],58.4391
16,O=C(Nc1ccc2nc3n(c(=O)c2c1)CCCC3)C1CCCCC1 [CBK304383],14.586
17,Cc1ccc(S(=O)(=O)NCCCO)cc1C(=O)O [CBK266610],116.982
18,O=C(c1cc(C2CCCN(Cc3ccccc3)C2)no1)N1CCCC1 (stereo not shown) [CBK283395],98.1349
19,Cc1cccn2c(=O)cc(CN3CCC(CNc4ccccn4)C3)nc12 (stereo not shown) [CBK306123],74.8012
20,O=C(Cn1c(-c2cncs2)nc2ccccc21)NCc1ccccc1 [CBK264705],97.8962
21,CC(=O)N1CCC2(CC1)NC(=O)N(c1ccc(C(=O)O)cc1)N2 [CBK286758],49.8844

row,SMILES,% of control remaining
1,c1ccc(COCCCN2CCC3(CC2)OCCc2c3[nH]c3ccccc23)cc1 [CBK040208],101.998
2,O=C(Cc1cccc(F)c1)N1CCC(c2cc3ncccc3[nH]2)CC1 [CBK283374],83.2066
3,O=C(c1ccccc1O)N1CCN(Cc2cc(=O)n3ccsc3n2)CC1 [CBK306096],57.7996
4,COc1ccc(Cc2n[nH]c(=S)n2-c2cccnc2)cc1 [CBK288373],55.2264
5,Nc1nc(Cl)c2ncn([C@H]3C[C@@H](O)[C@@H](CO)O3)c2n1 [CBK201193],112.932
6,O=C(O)C1C(C(=O)O)C1C(=O)O (stereo not shown) [CBK230432],92.8479
7,O=c1c2cccnc2ncn1CC(O)COc1ccc(-c2ccccc2)cc1 (stereo not shown) [CBK296690],123.379
8,CCC(C)c1ccc(NC(=O)CSc2nnnn2C)cc1 (stereo not shown) [CBK058085],50.9123
9,CCS(=O)(=O)NC1CCN(c2nc(C(F)(F)F)nc3[nH]cnc23)CC1 [CBK304588],68.5716
10,FC(F)(F)c1ccc(SCc2cccs2)nc1 [CBK103711],88.7319
11,CC(C)(C)OC(=O)NCCc1ccc(Nc2cc(-c3ccc4c(c3)OCO4)ncn2)cc1 [CBK090957],110.435
12,CCN(CC)CCN(CC(=O)Nc1c(C)cccc1Cl)Cc1ccccc1 [CBK023143],69.1239
13,Cc1cc(C)c2cc(CN(CCO)Cc3nnnn3CC3CCCO3)c(=O)[nH]c2c1 (stereo not shown) [CBK108944],88.2032
14,CCCCCOc1nccnc1N1CCNCC1 [CBK001901G],96.8969
15,Cc1ccc(C(NC(=O)CC(C)C)c2ccc3cccnc3c2O)cc1 (stereo not shown) [CBK293943],95.4397
16,O=C(Cn1c2ccccc2n2ncnc12)c1ccc(-c2ccccc2)cc1 [CBK263097],80.1321
17,C=CCn1c(SCCC(=O)O)nc2c1c(=O)n(C)c(=O)n2C [CBK269573],102.007
18,O=S1(=O)N=CNc2ccccc21 [CBK028171],89.7358
19,O=c1c2c3nc4ccccc4nc3n(CCc3ccccc3)c2ncn1C1CCCC1 [CBK269464],73.2491
20,O=C(Nc1ccc(F)c(Cl)c1)c1cccnc1Sc1cccs1 [CBK057512],84.1362
21,NC(=O)c1ccccc1NC(=O)c1ccc2ccccc2c1 [CBK261171],94.9878

row,SMILES,% of control remaining
1,Cc1nc2ccccc2nc1COC(=O)c1ccc(S(=O)(=O)N2CCCCC2C)cc1 (stereo not shown) [CBK297932],91.4043
2,Cn1cc(C(=O)N2CCc3nc(-c4ccccc4F)sc3C2)cn1 [CBK281914],97.9628
3,CC(=O)Nc1cccc(NC(=O)CSc2ncnc3c2nnn3C)c1 [CBK287829],110.751
4,COc1ccc(Nc2nccc3c2nnn3C)cc1 [CBK287879],100.049
5,O=C(O)c1cccc(Nc2nc3ccccc3nc2NS(=O)(=O)c2ccc(Br)cc2)c1 [CBK296113],109.173
6,CN(CC(=O)OCC(=O)c1ccccc1)S(=O)(=O)c1ccc(Cl)cc1 [CBK264363],94.4692
7,CC1c2ccsc2CCN1C(=O)COc1ccc(Br)cc1 (stereo not shown) [CBK304999],24.4244
8,COc1cccc(-c2cnc(N)c(NCc3ccco3)n2)c1 [CBK063684],105.045
9,Cn1cc(-c2ncc(OCCc3c[nH]c4ccccc34)nc2N)cn1 [CBK145166],91.021
10,CC(CCCC(C)(C)O)Nc1cncc(-c2cccc(C(=O)O)c2)n1 (stereo not shown) [CBK065489],61.3362
11,CSc1nnc(CC2CCN(C(=O)c3ccccc3C(C)=O)CC2)n1C [CBK306720],73.7337
12,Cc1cccc(-c2ccc3c(c2)C(=O)N2CC[C@H](NC(=O)NC(C)C)C[C@H]2C(=O)N3)c1C [CBK289567],118.493
13,CN(/N=C\c1ccc([N+](=O)[O-])cc1)c1nc(-c2ccccc2)cc(-c2ccccc2)n1 [CBK261517],90.1897
14,O=C(c1ccco1)N1CCC(n2c(=O)oc3ccccc32)CC1 [CBK284350],45.4889
15,CC(=O)Nc1cccc(-n2cc(-c3cccc(C(F)(F)F)c3)nn2)c1 [CBK112938],86.5484
16,CC(C)(CN1CCCCC1)NC(=O)CCOc1cccc(F)c1 [CBK282060],98.7755
17,CN(CCN1CCOCC1)c1nc2c(c(=O)[nH]1)Cc1ccccc1OC2 [CBK306783],96.1176
18,COc1ccc(-c2noc(CSc3nc4sc(C)c(C)c4c(=O)n3-c3ccccc3)n2)cc1 [CBK268264],116.444
19,COc1ccc(S(=O)(=O)N(CC(=O)O)C2CCCCC2)cc1Cl [CBK267997],84.2662
20,CC(=O)c1ccc(OC(C)C)c(CSc2nc(O)cc(O)n2)c1 [CBK263446],94.7429
21,CCCCNC(=O)c1c(N)n(-c2ccc(C(=O)O)cc2)c2nc3ccccc3nc12 [CBK300500],82.9575

row,SMILES,% of control remaining
1,N#C/C(=C\c1ccc(OCC(=O)O)cc1)C(N)=S [CBK268917],117.372
2,Oc1ccc(/N=C/c2ccc(/C=N/c3ccc(O)cc3)cc2)cc1 [CBK261203],94.573
3,Cc1nc(-c2n[nH]cc2-c2ccccc2F)sc1CCN [CBK281578],92.5198
4,CCCOc1ccc(C(C)=O)cc1CC(C(N)=O)C(N)=O [CBK263309],61.3497
5,COc1ccc(OCc2nn(-c3nc4ccccc4s3)c(N)c2-c2ccccc2)cc1 [CBK266539],93.1235
6,Cc1csc([C@H]2Cc3ccsc3[C@@H](C3CCOC3)N2)n1 (stereo partly shown) [CBK285089],118.891
7,Cn1nnnc1NC(=O)c1ccccc1F [CBK058776],94.5456
8,COc1ccc(N2C(=O)CC(n3c(CCCCO)nc4ccccc43)C2=O)cc1 (stereo not shown) [CBK268895],84.6075
9,Cc1ccc(S(N)(=O)=O)cc1-c1nnc2c3ccccc3c(C)nn12 [CBK266680],75.962
10,CCn1ncnc1CN(C)Cc1ccc2c(c1)CN(C)C2 [CBK306530],88.0167
11,CCc1ccc(C(O)CNC2CCN(CCOC)CC2)cc1 (stereo not shown) [CBK304259],48.3683
12,CC(Sc1ccc(Cl)cc1)C(=O)Nc1ccc(CSc2ccccc2)cc1 (stereo not shown) [CBK264670],101.578
13,COc1ccc(CC(=O)NNC(=O)Nc2ccc(Cl)c(Cl)c2)cc1 [CBK262652],97.7919
14,Cc1ccc(NS(=O)(=O)c2cc(C(=O)N3CCN(C)CC3)ccc2C)cc1 [CBK268577],112.399
15,CC1(NC(=O)CC(c2ccncc2)c2c[nH]c3ccccc23)CCC1 (stereo not shown) [CBK281610],99.6016
16,O=C(NCCSCc1ccco1)Nc1ccc(Cl)cc1 [CBK267869],115.971
17,C=CCOc1ccc2ccccc2c1CNc1nn[nH]n1 [CBK267619],105.564
18,O=C(c1cc(F)cc(F)c1)N1CCC(O)(c2cccnc2F)CC1 [CBK284361],91.1865
19,CC(=O)N1CCC2(C/C=C/C[C@H]3CN(CCO)CC[C@H]3NC(=O)CNC2=O)CC1 [CBK292139],117.629

# Source: PMC12040169 (PLOS Biology, 2025)
